Data: the RNAGym collection of RNA variant scans (doi:10.1093/nar/gkz1192)
Read counts are not given, so values of variants with three or more changes are uncertain.

B1: CPEB3 Ribozyme (parent)
chain: UAACAGGGGGCCACAGCAGAAGCGUUCACGUCGCAGCCCCUGUCAGAUUCUGGUGAAUCUGCGAAUUCUGCUGUAUAUCUC

Variants of: B1
Test: self-cleavage, relative activity (ratio to wild type); higher = more cleavage; in vitro, sequencing
Summary of the method: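 For each CPEB3 ribozyme variant, relative activity is its cleaved/total read fraction divided by the unmutated ribozyme's. Barcoded error-prone PCR libraries were transcribed by T7 RNA polymerase (5 hours, 37°C) and held in DNase I for 15 min before an EDTA stop, with cleavage occurring throughout. Template-switching reverse transcription and Illumina sequencing were used to read the RNAs. A 5-read minimum applied, and results are the mean of three batches.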

Variant	self-cleavage
UAACAGGGGGCCGCAGCUGAAGCGUUCACUUCGCAGCCCCUGUCAGAUUCUGGUGAAUCUGCGAAUUCUGCUGUAUAUCUC [A13G A18U G30U]	0.1
UAACAGGGGGCCGCAGCUGAAGCGUUCACGUCACUGCCCCUGUCAGAUUCUGGUGAAUCUGCGAAUUCUGCUGUAUAUCUC [A13G A18U G33A A35U]	0.21
UAACAGGGGGCCGCAGCUGAAGCGCUCACGUCGCAGCCCCUGUCAGAUUCUGGUGAAUCUGCGAAUUCUGCUGUAUAUCUC [A13G A18U U25C]	0.28
UAACAGGGGGCCGCAGCUGAAGCGUUCACGUCGCAGCCCCAGUCAGGUUCUGGUGAAUCCGCGGAUUCUGCUGUAUAUCUC [A13G A18U U41A A47G U60C A64G]	0.28
UAACAGGGGGCCGCAGCUGAAGCGUUCACGUCGCAGCCCCCGUCAGAUUCUGGUGAAUCAGCUAAUUCUGCUGUAUAUCUC [A13G A18U U41C U60A G63U]	0.25
UAACAGGGGGCCGCAGCUGAAGCGUUCACGUCGCAGCCCCUGUCAGAUUCUGGGGAAUCUGCGAAUUCUGCUGUAUAUCAC [A13G A18U U54G U80A]	0.18
UAACAGGGGGCCGCAGCUGAAGCGUUCACGUCGCAGCCCCUGUCAGAUUCUGGUGAAUCUGCGAACUCUACUGUAUAUCUC [A13G A18U U66C G70A]	0.12
UAACAGGGGGCCGCAGCUGAAGCGUUCACGUCGCAGCCCCUGUCAGAUUCUGGUGAAUCUGCGAAUACUGCUGUAUAUCUC [A13G A18U U67A]	0.17
UAACAGGGGGCCGCAGCUGAAGCGUUCACGUCGCAGCCCCUGUCAGAUUCUGGUGAAUCUGCGAAUUCUGCAGUAUAUCUC [A13G A18U U72A]	0.18
UAACAGGGGGCCGCAGCUGAAGCGUUCACGUCGCAGCCCCUGUCAGAUUCUGGUGAAUCUGCGAAUUCUGCUGUAUAUCCC [A13G A18U U80C]	0.34
UAACAGGGGGCCGCAGCAGCGGCGCUCACGACGCAGCCCCUGUCAGAUUCUGGUGAAACUGCGAAUUCUGCUGUAUACCUC [A13G A20C A21G U25C U31A U58A U78C]	0
UAACAGGGGGCCGCAGCAGCAGCGUUCACGUCGCGGCCCCUGUCGGAUUCUGGUGAAUCUGCGAAUUCUGCUGUAUAUCUC [A13G A20C A35G A45G]	0.04
UAACAGGGGGCCGCAGCAGCAGCGUUCACGUAGCAGCCCCUGUCAGAUUCUGGUGAAUCUGCGAAUUCUGCUGUAUAUCUC [A13G A20C C32A]	0.23
UAACAGGGGGCCGCAGCAGCAGCGUUCACGUCGCAGCCCCAGACAGAUUCUGGUGAAUCUGCGAGUUCUGCUGUAUAUCUC [A13G A20C U41A U43A A65G]	0.04
UAACAGGGGGCCGCAGCAGGGGCGUUCACGUCGCAGCCCCUGUCAGAUUCUGGUGAAUCUGCGAAUUCUGCAGUAUAUCUC [A13G A20G A21G U72A]	0.08
UAACAGGGGGCCGCAGCAGGUGCGUUCGCGUCGCAGCCCCUGUCCGAUUCUGGUGAAUCUGCGAAUUCUGCUGUAUAUCUC [A13G A20G A21U A28G A45C]	0.34
UAACAGGGGGCCGCAGCAGGUGCGUUCACGUCGCAGCCCCUGUCGGAUUCUGGUGAGUCUGCGAAUUCUGCUGUAUAUCAC [A13G A20G A21U A45G A57G U80A]	0.37

Variant	self-cleavage
UAACAGGGGGCCGCAGCAGGAGCGUUCUCGUCGCAGCACCUGUCAGAUCCUGGUGAAUCUGCGGAUUCUGCUGUAUAUCUC [A13G A20G A28U C38A U49C A64G]	0.04
UAACAGGGGGCCGCAGCAGGAGCGUUCACGUCGCGGCCCCUGUCAGACUCUGGUGAGUCUGCGUAUUCUGCUGUAUAUCUC [A13G A20G A35G U48C A57G A64U]	0.06
UAACAGGGGGCCGCAGCAGGAGCGUUCACGUCGCUGCCCCUGUCAGAUUCAGGUGAAUCUGCGAAUUCUGCUGUAUAUCUC [A13G A20G A35U U51A]	0.24
UAACAGGGGGCCGCAGCAGGAGCGUUCACGUCGCAGCCCCUGUCAGAUUCUGGUGGAUCAGCGAAUUCUGCUGUAUAUCUC [A13G A20G A56G U60A]	0.08
UAACAGGGGGCCGCAGCAGGAGCGUUCACGUCGCAGCCCCUGUCAGAUUCUGGUGAAUCUGCGUAUUCUGCUGUAUAUCUC [A13G A20G A64U]	0.27
UAACAGGGGGCCGCAGCAGGAGCGUUCACGUCGCAGCCCCUGUCAGAUUCUGGUGAAUCUGCGAGUUCUGCUGUAUAUCUC [A13G A20G A65G]	0.37
UAACAGGGGGCCGCAGCAGGAGCGUUCACGUCGCAGCCCCUGUCAGAUUCUGGUGAAUCUGCGAGUCCUGCUGUAUAUCAC [A13G A20G A65G U67C U80A]	0.38
UAACAGGGGGCCGCAGCAGGAGCGUUCACGUCGCAGCCCCUGUCAGAUUCUGGUGAAUCUGCGAAUUCUGCUGUAUGUCUC [A13G A20G A77G]	0.64
UAACAGGGGGCCGCAGCAGGAGCGUUCACGUCGCAGCCCCUGUCAGAUUCUGGUGAAUCUGCGAAUUCUGUUGUAUAUCUC [A13G A20G C71U]	0.12
UAACAGGGGGCCGCAGCAGGAGCGUUCACGUCCCAGCCCCUGUCAGAUUCUGGUGAAUCUGCGAAUUCUGCUGUAUAUCUC [A13G A20G G33C]	0.18
UAACAGGGGGCCGCAGCAGGAGCGUUCACGUCUCAGCCCCUGUCAGAUUCUGGUGAGUCUGCGAAUUCUGCUGUAUAUCUC [A13G A20G G33U A57G]	0.06
UAACAGGGGGCCGCAGCAGGAGCGUUCACGUCGCAGCCCCUGUCAAAUUCUGGUGAAUCUGCGAAUUCAGCUGUACAUCUC [A13G A20G G46A U69A U76C]	0.14
UAACAGGGGGCCGCAGCAGGAGCGUUCACGUCGCAGCCCCUGUCAUAAUCUGGUGAAUCUGCGAAUUCUGCUGUAUAUCUC [A13G A20G G46U U48A]	0.05
UAACAGGGGGCCGCAGCAGGAGCGUUCACGUCGCAGCCCCUGUCAGAUUCUGGUGAAUCUACGAAUUCUGCUGUAUAUCCC [A13G A20G G61A U80C]	0.32
UAACAGGGGGCCGCAGCAGGAGCGUUCACGUCGCAGCCCCUGUCAGAUUCUGGUGAAUCUGCAAAUUCUGCUGUAUAUCUC [A13G A20G G63A]	0.43
UAACAGGGGGCCGCAGCAGGAGCGAUCACGUCGCAGCCCCUGUCAGAUUCUGGCGAAUCUGCGAAUUCCGCUGUAUAUCUC [A13G A20G U25A U54C U69C]	0.26
UAACAGGGGGCCGCAGCAGGAGCGCUCACGUCGCGGCCCCUGUCAGGUUCUGGUGAAUCUGCGAAUUCAGCUGUAUAUCUC [A13G A20G U25C A35G A47G U69A]	0
